B1: GPR68, Q15743 (parent)
chain: MGNITADNSSMSCTIDHTIHQTLAPVVYVTVLVVGFPANCLSLYFGYLQIKARNELGVYLCNLTVADLFYICSLPFWLQYVLQHDNWSHGDLSCQVCGILLYENIYISVGFLCCISVDRYLAVAHPFRFHQFRTLKAAVGVSVVIWAKELLTSIYFLMHEEVIEDENQHRVCFEHYPIQAWQRAINYYRFLVGFLFPICLLLASYQGILRAVRRSHGTQKSRKDQIQRLVLSTVVIFLACFLPYHVLLLVRSVWEASCDFAKGVFNAYHFSLLLTSFNCVADPVLYCFVSETTHRDLARLRGACLAFLTCSRTGRAREAYPLGAPEASGKSGAQGEEPELLTKLHPAFQTPNSPGSGGFPTGRLA

Variants of B1 are the subject of data set [1]. Description: cAMP reporter score (Enrich2 score, wild type = 0); higher = more signal; HEK293T, FACS bins.
In data set [2] the parent is B1. The experiment in a line: surface expression score (Enrich2 score, wild type = 0); higher = more signal; HEK293T, FACS bins.

The least precise scores are not listed. Two further conditions of the source, in which the scores hardly spread, are not listed. In variant names, del marks residues removed and ins residues inserted between the two positions. For part of these data: The concentration of ogerin is not given here.

For F288V, the cAMP reporter score was 0.844 in data set [1] (pH 5.5); 0.014 in data set [1] (pH 6); 0.209 in data set [1] (pH 6, modulator: ogerin); -0.056 in data set [1] (pH 6.5, modulator: ogerin). Further, the surface expression score in data set [2] is -1.91.
On to F288I, for which the cAMP reporter score is 0.622 in data set [1] (pH 5.5); 0.986 in data set [1] (pH 6, modulator: ogerin); 1.1 in data set [1] (pH 6.5, modulator: ogerin). The surface expression score in data set [2] is -1.94.
On to F288Y, for which the cAMP reporter score in data set [1] (pH 5.5) is -1.24; in data set [1] (pH 6), -0.907; in data set [1] (pH 6, modulator: ogerin), -1.78; in data set [1] (pH 6.5, modulator: ogerin), -1.25. In addition, the surface expression score in data set [2] is -1.23.
As to F288D, the cAMP reporter score in data set [1] (pH 5.5) is -0.969; in data set [1] (pH 6), -0.999; in data set [1] (pH 6, modulator: ogerin), -1.66; in data set [1] (pH 6.5, modulator: ogerin), -1.21. Moreover, the surface expression score in data set [2] was -2.72.
Turning to F288K, the cAMP reporter score in data set [1] (pH 5.5) is -0.327; in data set [1] (pH 6), -0.91; in data set [1] (pH 6, modulator: ogerin), -1.01; in data set [1] (pH 6.5, modulator: ogerin) it was -0.567. Further, the surface expression score in data set [2] was -1.7.
The corresponding values for F288T are -2.1, -1.1, -0.333, -1.57 and -1.69.
In the case of F288W, the cAMP reporter score is -0.362 in data set [1] (pH 5.5); -1.3 in data set [1] (pH 6, modulator: ogerin); -0.589 in data set [1] (pH 6.5, modulator: ogerin). Moreover, in data set [2], the surface expression score is -0.167.
On the same counts, the results for F288M are 1.05, 1.21, 1.16 and 0.325.
T292_T293del: the cAMP reporter score in data set [1] (pH 5.5) was -1.28; in data set [1] (pH 6), -0.947; in data set [1] (pH 6, modulator: ogerin), -1.85; in data set [1] (pH 6.5, modulator: ogerin), -0.501. Also, in data set [2], the surface expression score came out at 0.653.
On to F288_V289del, for which the cAMP reporter score was -0.632 in data set [1] (pH 5.5); 0.716 in data set [1] (pH 6); -1.29 in data set [1] (pH 6, modulator: ogerin); -1.21 in data set [1] (pH 6.5, modulator: ogerin). Besides, the surface expression score in data set [2] was -1.54.
As to N278_C279insG, the cAMP reporter score in data set [1] (pH 5.5) is -1.53; in data set [1] (pH 6) it was -0.927; in data set [1] (pH 6, modulator: ogerin) it was -2.04; in data set [1] (pH 6.5, modulator: ogerin), -1.45. In data set [2], the surface expression score was -2.82.
As for L285_Y286insGS, the cAMP reporter score in data set [1] (pH 5.5) is -1.34; in data set [1] (pH 6), -1.27; in data set [1] (pH 6, modulator: ogerin) it was -1.48; in data set [1] (pH 6.5, modulator: ogerin) it was -1.36. The surface expression score in data set [2] was -1.83.
The corresponding values for F288_V289insGS are -0.457, -0.516, -1.48, -0.63 and -1.28.
For Y286_C287insGS, the cAMP reporter score was -0.65 in data set [1] (pH 5.5); -0.556 in data set [1] (pH 6); -1.06 in data set [1] (pH 6, modulator: ogerin); -1.17 in data set [1] (pH 6.5, modulator: ogerin).
On to V280del, for which the cAMP reporter score in data set [1] (pH 5.5) was -1.37; in data set [1] (pH 6), -0.183; in data set [1] (pH 6, modulator: ogerin), -1.65; in data set [1] (pH 6.5, modulator: ogerin), -0.672. Further, in data set [2], the surface expression score was -3.2.
Turning to V289_S290insG, the cAMP reporter score in data set [1] (pH 5.5) was -1.1; in data set [1] (pH 6) it was -0.946; in data set [1] (pH 6, modulator: ogerin) it was -0.942; in data set [1] (pH 6.5, modulator: ogerin), -1.14. Further, the surface expression score in data set [2] is -0.068.
In the case of S290_T292del, the cAMP reporter score was 0.125 in data set [1] (pH 5.5); -1.31 in data set [1] (pH 6); -0.183 in data set [1] (pH 6, modulator: ogerin); -0.747 in data set [1] (pH 6.5, modulator: ogerin). The surface expression score in data set [2] was -1.19.
On to V284del, for which the cAMP reporter score is -1.49 in data set [1] (pH 5.5); -1.32 in data set [1] (pH 6); -1.19 in data set [1] (pH 6, modulator: ogerin); -0.534 in data set [1] (pH 6.5, modulator: ogerin). Moreover, the surface expression score in data set [2] is -2.7.
On to D282Y, for which the cAMP reporter score was -0.782 in data set [1] (pH 5.5); -0.498 in data set [1] (pH 6); -0.822 in data set [1] (pH 6, modulator: ogerin); -2.2 in data set [1] (pH 6.5, modulator: ogerin).
On to D282A, for which the cAMP reporter score in data set [1] (pH 5.5) is -0.76; in data set [1] (pH 6) it was -0.449; in data set [1] (pH 6, modulator: ogerin) it was -1.16; in data set [1] (pH 6.5, modulator: ogerin) it was -0.755. For the same variant, the surface expression score in data set [2] amounted to 1.82.
For D282T, the cAMP reporter score in data set [1] (pH 5.5) was 0.892; in data set [1] (pH 6), 0.407; in data set [1] (pH 6, modulator: ogerin) it was 0.319; in data set [1] (pH 6.5, modulator: ogerin), -0.136. Also, the surface expression score in data set [2] worked out at 3.7.
In the case of D282L, the cAMP reporter score in data set [1] (pH 5.5) was -0.654; in data set [1] (pH 6), -1.21; in data set [1] (pH 6, modulator: ogerin), -1.39; in data set [1] (pH 6.5, modulator: ogerin) it was -1.19. In addition, the surface expression score in data set [2] was 1.7.
With D282N, the cAMP reporter score in data set [1] (pH 5.5) was -0.422; in data set [1] (pH 6.5, modulator: ogerin), -0.36.
For D282C, the cAMP reporter score in data set [1] (pH 5.5) was 0.194; in data set [1] (pH 6) it was -0.13; in data set [1] (pH 6, modulator: ogerin), -0.506; in data set [1] (pH 6.5, modulator: ogerin), -0.795. The surface expression score in data set [2] came out at 2.32.
The corresponding values for D282F are -1.17, -0.644, -1.6, -1.24 and 1.46.
For the variant D282R, the cAMP reporter score in data set [1] (pH 5.5) is -0.9; in data set [1] (pH 6), -0.724; in data set [1] (pH 6, modulator: ogerin) it was -0.73; in data set [1] (pH 6.5, modulator: ogerin), -1.69. In addition, in data set [2], the surface expression score worked out at 0.458.
In the case of D282S, the cAMP reporter score is -0.559 in data set [1] (pH 5.5); 0.237 in data set [1] (pH 6); -0.023 in data set [1] (pH 6, modulator: ogerin); 0.074 in data set [1] (pH 6.5, modulator: ogerin). In addition, in data set [2], the surface expression score was 1.66.
On the same counts, the results for D282K are -1.08, -0.393, -1.25, -0.2 and 2.87.
On to D282E, for which the cAMP reporter score in data set [1] (pH 5.5) is -1.61; in data set [1] (pH 6), -0.886; in data set [1] (pH 6, modulator: ogerin), -1.75; in data set [1] (pH 6.5, modulator: ogerin) it was -1.44. Further, the surface expression score in data set [2] is -0.524.
As to D282H, the cAMP reporter score in data set [1] (pH 5.5) was -1.29; in data set [1] (pH 6) it was -1.02; in data set [1] (pH 6, modulator: ogerin) it was -1.08; in data set [1] (pH 6.5, modulator: ogerin), -1.21. Moreover, in data set [2], the surface expression score was 1.47.
D282M: the cAMP reporter score in data set [1] (pH 5.5) is -1.02; in data set [1] (pH 6), -0.593; in data set [1] (pH 6, modulator: ogerin), -1.05; in data set [1] (pH 6.5, modulator: ogerin), -1.02. Moreover, the surface expression score in data set [2] came to 1.43.

The values are drawn from the GPR68 mutational scans of Howard et al. (2025).
